Data reported in the supplement of paper PMC6609913.
Structures can show the parent of a compound that is named as a salt. ± gives the standard deviation of the averaged measurements. The full ranking holds about 1,300 compounds; the median of “normalised cell viability” is about 1, and the lowest 2% start at about 0.14. The list shows a part of the results.

System: V-C8 (BRCA2-deficient hamster cells)
Experiment: normalised cell viability (fraction of plate median); higher = more viable cells (less toxic)
Settings: 5 µM
Method in brief: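 In two screens, library drugs at 5 μM were given for 3 days (screen 1) or 6 days (screen 2) to hamster V-C8 cells without BRCA2 and V-C8 cells with BRCA2 restored, seeded 24 h earlier in 96-well plates. A resazurin assay gave the cell viability readout, expressed as modified robust per cent of sample against the plate median, with triplicate wells averaged.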

CC(Cc1cccc(C(F)(F)F)c1)NCCOC(=O)c1ccccc1 (stereo unspecified) [Benfluorex hydrochloride]
normalised cell viability (treatment time: 3 days): 1.14 ± 0.015
normalised cell viability (treatment time: 6 days): 1.202 ± 0.006

CC(=O)S[C@@H]1CC2=CC(=O)CC[C@]2(C)[C@H]2CC[C@@]3(C)[C@@H](CC[C@@]34CCC(=O)O4)[C@H]12 [Spironolactone]
normalised cell viability (treatment time: 3 days): 1.06 ± 0.083
normalised cell viability (treatment time: 6 days): 1.04 ± 0.039

CCCc1cc(C(N)=S)ccn1 [Prothionamide]
normalised cell viability (treatment time: 3 days): 0.967 ± 0.035
normalised cell viability (treatment time: 6 days): 1.04 ± 0.061

NNCCc1ccccc1 [Phenelzine sulfate]
normalised cell viability (treatment time: 3 days): 1.05 ± 0.057
normalised cell viability (treatment time: 6 days): 1.05 ± 0.076

C[C@H]1O[C@H](O[C@H]2[C@H](O)[C@@H](O)[C@@H](O[C@H]3[C@H](O)[C@@H](O)C(O)O[C@@H]3CO)O[C@@H]2CO)[C@H](O)[C@@H](O)[C@@H]1N[C@H]1C=C(CO)[C@@H](O)[C@H](O)[C@H]1O (stereo partly specified) [Acarbose]
normalised cell viability (treatment time: 3 days): 0.911 ± 0.036
normalised cell viability (treatment time: 6 days): 1.11 ± 0.066

CC(C)(C)NC[C@@H](O)COc1cccc2c1CCCC2=O [(+) -Levobunolol hydrochloride]
normalised cell viability (treatment time: 3 days): 0.9988 ± 0.0084
normalised cell viability (treatment time: 6 days): 0.922 ± 0.077

CO[C@H]1/C=C/O[C@@]2(C)Oc3c(C)c(O)c4c(O)c(c(/C=N/N5CCN(C6CCCC6)CC5)c(O)c4c3C2=O)NC(=O)/C(C)=C\C=C\[C@H](C)[C@H](O)[C@@H](C)[C@@H](O)[C@@H](C)[C@H](OC(C)=O)[C@@H]1C [Rifapentine]
normalised cell viability (treatment time: 3 days): 0.949 ± 0.11
normalised cell viability (treatment time: 6 days): 1.03 ± 0.025

N=C(N)NC(=N)NCCc1ccccc1 [Phenformin hydrochloride]
normalised cell viability (treatment time: 3 days): 0.955 ± 0.035
normalised cell viability (treatment time: 6 days): 0.96 ± 0.052

CN1CCC(=C2c3ccccc3C=Cc3ccccc32)CC1 [Cyproheptadine hydrochloride]
normalised cell viability (treatment time: 3 days): 0.868 ± 0.057
normalised cell viability (treatment time: 6 days): 0.817 ± 0.02

CC[N+](C)(C)c1cccc(O)c1 [Edrophonium chloride]
normalised cell viability (treatment time: 3 days): 0.951 ± 0.062
normalised cell viability (treatment time: 6 days): 1.02 ± 0.028

NCCc1c[nH]cn1 [Histamine dihydrochloride]
normalised cell viability (treatment time: 3 days): 1.06 ± 0.084
normalised cell viability (treatment time: 6 days): 1.08 ± 0.14

OC(Cn1cncn1)(Cn1cncn1)c1ccc(F)cc1F [Fluconazole]
normalised cell viability (treatment time: 3 days): 1.09 ± 0.061
normalised cell viability (treatment time: 6 days): 1.03 ± 0.054

CCCOc1cc(N)ccc1C(=O)OCCN(CC)CC [Propoxycaine hydrochloride]
normalised cell viability (treatment time: 3 days): 1.1 ± 0.017
normalised cell viability (treatment time: 6 days): 1.04 ± 0.015

Cc1cn[nH]c1 [Fomepizole]
normalised cell viability (treatment time: 3 days): 1.15 ± 0.042
normalised cell viability (treatment time: 6 days): 1.02 ± 0.036

CC(=O)OCC(=O)[C@@]1(O)CC[C@H]2[C@@H]3CCC4=CC(=O)CC[C@]4(C)[C@@]3(F)[C@@H](O)C[C@@]21C [Fludrocortisone acetate]
normalised cell viability (treatment time: 3 days): 0.957 ± 0.08
normalised cell viability (treatment time: 6 days): 1.11 ± 0.041

CCCCN(CCCC)CCCOC(=O)c1ccc(N)cc1 [Butacaine]
normalised cell viability (treatment time: 3 days): 1.01 ± 0.041
normalised cell viability (treatment time: 6 days): 1.03 ± 0.039

Cc1ccc(C(=O)c2ccc(CC(=O)O)n2C)cc1 [Tolmetin sodium salt dihydrate]
normalised cell viability (treatment time: 3 days): 1.02 ± 0.035
normalised cell viability (treatment time: 6 days): 0.978 ± 0.025

COC(=O)Nc1nc2cc(C(=O)c3cccs3)ccc2[nH]1 [Nocodazole]
normalised cell viability (treatment time: 3 days): 0.147 ± 0.0062
normalised cell viability (treatment time: 6 days): 0.128 ± 0.004

CC[N+](C)(CC)CCOC(=O)C1c2ccccc2Oc2ccccc21 [Methantheline bromide]
normalised cell viability (treatment time: 3 days): 0.957 ± 0.12
normalised cell viability (treatment time: 6 days): 0.897 ± 0.059

CC(=O)OCC(=O)[C@@]1(O)CC[C@H]2[C@@H]3CCC4=CC(=O)CC[C@]4(C)[C@H]3[C@@H](O)C[C@@]21C [Cortisol acetate]
normalised cell viability (treatment time: 3 days): 1.06 ± 0.14
normalised cell viability (treatment time: 6 days): 1.16 ± 0.045

Cc1ncc(C[n+]2csc(CCO)c2C)c(N)n1 [Thiamine hydrochloride]
normalised cell viability (treatment time: 3 days): 1.05 ± 0.029
normalised cell viability (treatment time: 6 days): 1.05 ± 0.016

CC(C)c1c(C(=O)Nc2ccccc2)c(-c2ccccc2)c(-c2ccc(F)cc2)n1CC[C@@H](O)C[C@@H](O)CC(=O)O [Atorvastatin]
normalised cell viability (treatment time: 3 days): 0.633 ± 0.051
normalised cell viability (treatment time: 6 days): 0.734 ± 0.032

CCN[C@H]1CN(CCCOC)S(=O)(=O)c2sc(S(N)(=O)=O)cc21 [Brinzolamide]
normalised cell viability (treatment time: 3 days): 1.14 ± 0.04
normalised cell viability (treatment time: 6 days): 1.11 ± 0.032

NS(=O)(=O)c1cc(C2(O)NC(=O)c3ccccc32)ccc1Cl (stereo unspecified) [Chlorthalidone]
normalised cell viability (treatment time: 3 days): 1.05 ± 0.036
normalised cell viability (treatment time: 6 days): 1.01 ± 0.085

C=CC(N)CCC(=O)O (stereo unspecified) [Vigabatrin]
normalised cell viability (treatment time: 3 days): 1.04 ± 0.061
normalised cell viability (treatment time: 6 days): 1.03 ± 0.042

CCN(CC)CCOC(=O)C1(C2CCCCC2)CCCCC1 [Dicyclomine hydrochloride]
normalised cell viability (treatment time: 3 days): 0.977 ± 0.096
normalised cell viability (treatment time: 6 days): 0.998 ± 0.04

CC(N/C(=N\C#N)Nc1ccncc1)C(C)(C)C (stereo unspecified) [Pinacidil]
normalised cell viability (treatment time: 3 days): 0.916 ± 0.02
normalised cell viability (treatment time: 6 days): 0.953 ± 0.043

CCCCC(O)c1ccccc1 (stereo unspecified) [Fenipentol]
normalised cell viability (treatment time: 3 days): 1.12 ± 0.097
normalised cell viability (treatment time: 6 days): 1.03 ± 0.016

CC(=O)Oc1ccccc1C(=O)Nc1ncc([N+](=O)[O-])s1 [Nitazoxanide]
normalised cell viability (treatment time: 3 days): 0.889 ± 0.033
normalised cell viability (treatment time: 6 days): 0.95 ± 0.07

COc1cc(C(=O)OCCCN2CCCN(CCCOC(=O)c3cc(OC)c(OC)c(OC)c3)CC2)cc(OC)c1OC [Dilazep dihydrochloride]
normalised cell viability (treatment time: 3 days): 0.887 ± 0.081
normalised cell viability (treatment time: 6 days): 0.903 ± 0.072

O=C1c2c(O)cccc2Cc2cccc(O)c21 [Anthralin]
normalised cell viability (treatment time: 3 days): 1.03 ± 0.019
normalised cell viability (treatment time: 6 days): 1.003 ± 0.0083

O=C(O)c1cn(-c2ccc(F)cc2)c2cc(N3CCNCC3)c(F)cc2c1=O [Sarafloxacin]
normalised cell viability (treatment time: 3 days): 1.01 ± 0.047
normalised cell viability (treatment time: 6 days): 1.1 ± 0.32

C[C@@H]1C[C@H]2[C@@H]3C[C@H](F)C4=CC(=O)C=C[C@]4(C)[C@@]3(F)[C@@H](O)C[C@]2(C)[C@@]1(O)C(=O)CO [Flumethasone]
normalised cell viability (treatment time: 3 days): 1.06 ± 0.084
normalised cell viability (treatment time: 6 days): 1.1 ± 0.038
